Changes are numbered by the printed parent chain; changes in the protein carry UniProt numbers. The list shows a part of the results.
T1: RBFOX1 RRM (Homo sapiens, UniProt Q9NWB1 109-208)
T1 sequence: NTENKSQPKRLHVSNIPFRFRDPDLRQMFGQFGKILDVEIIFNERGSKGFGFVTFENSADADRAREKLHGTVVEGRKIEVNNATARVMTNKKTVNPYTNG

B1: UGCCGUA (DNA:RNA)
RNA: GGGAGACCGGAAUUCAGAUUGUCCUGCCGUAUUAAAUCCCGUCGUAGCCACCA
DNA 1: CAATCTGAATTCCGGTCTCCC
DNA 2: TGGTGGCTACGACGGGATT
B2: UUUUACC (DNA:RNA)
RNA: B1 RNA with G26U, C27U, C28U, G29A, U30C, A31C
DNA 1: CAATCTGAATTCCGGTCTCCC
DNA 2: TGGTGGCTACGACGGGATT
B3: UCGUCUU (DNA:RNA)
RNA: B1 RNA with G26C, C27G, C28U, G29C, A31U
DNA 1: CAATCTGAATTCCGGTCTCCC
DNA 2: TGGTGGCTACGACGGGATT
B4: UAAGCCC (DNA:RNA)
RNA: B1 RNA with G26A, C27A, C28G, G29C, U30C, A31C
DNA 1: CAATCTGAATTCCGGTCTCCC
DNA 2: TGGTGGCTACGACGGGATT
B5: UCCAGAA (DNA:RNA)
RNA: B1 RNA with G26C, C28A, U30A
DNA 1: CAATCTGAATTCCGGTCTCCC
DNA 2: TGGTGGCTACGACGGGATT
B6: CUCCUCU (DNA:RNA)
RNA: B1 RNA with U25C, G26U, G29U, U30C, A31U
DNA 1: CAATCTGAATTCCGGTCTCCC
DNA 2: TGGTGGCTACGACGGGATT
B7: AUGAUCA (DNA:RNA)
RNA: B1 RNA with U25A, G26U, C27G, C28A, G29U, U30C
DNA 1: CAATCTGAATTCCGGTCTCCC
DNA 2: TGGTGGCTACGACGGGATT
B8: CUUAUUG (DNA:RNA)
RNA: B1 RNA with U25C, G26U, C27U, C28A, G29U, A31G
DNA 1: CAATCTGAATTCCGGTCTCCC
DNA 2: TGGTGGCTACGACGGGATT
B9: UUUGCGU (DNA:RNA)
RNA: B1 RNA with G26U, C27U, C28G, G29C, U30G, A31U
DNA 1: CAATCTGAATTCCGGTCTCCC
DNA 2: TGGTGGCTACGACGGGATT
B10: UCCACCC (DNA:RNA)
RNA: B1 RNA with G26C, C28A, G29C, U30C, A31C
DNA 1: CAATCTGAATTCCGGTCTCCC
DNA 2: TGGTGGCTACGACGGGATT
B11: CGUAACA (DNA:RNA)
RNA: B1 RNA with U25C, C27U, C28A, G29A, U30C
DNA 1: CAATCTGAATTCCGGTCTCCC
DNA 2: TGGTGGCTACGACGGGATT
B12: GAGUGUU (DNA:RNA)
RNA: B1 RNA with U25G, G26A, C27G, C28U, A31U
DNA 1: CAATCTGAATTCCGGTCTCCC
DNA 2: TGGTGGCTACGACGGGATT
B13: UUAUUAU (DNA:RNA)
RNA: B1 RNA with G26U, C27A, C28U, G29U, U30A, A31U
DNA 1: CAATCTGAATTCCGGTCTCCC
DNA 2: TGGTGGCTACGACGGGATT
B14: AGAGUGA (DNA:RNA)
RNA: B1 RNA with U25A, C27A, C28G, G29U, U30G
DNA 1: CAATCTGAATTCCGGTCTCCC
DNA 2: TGGTGGCTACGACGGGATT
B15: GACGGCA (DNA:RNA)
RNA: B1 RNA with U25G, G26A, C28G, U30C
DNA 1: CAATCTGAATTCCGGTCTCCC
DNA 2: TGGTGGCTACGACGGGATT
B16: ACAGCCA (DNA:RNA)
RNA: B1 RNA with U25A, G26C, C27A, C28G, G29C, U30C
DNA 1: CAATCTGAATTCCGGTCTCCC
DNA 2: TGGTGGCTACGACGGGATT
B17: GGCCAUC (DNA:RNA)
RNA: B1 RNA with U25G, G29A, A31C
DNA 1: CAATCTGAATTCCGGTCTCCC
DNA 2: TGGTGGCTACGACGGGATT
B18: CUUCCUA (DNA:RNA)
RNA: B1 RNA with U25C, G26U, C27U, G29C
DNA 1: CAATCTGAATTCCGGTCTCCC
DNA 2: TGGTGGCTACGACGGGATT
B19: UGGGAUU (DNA:RNA)
RNA: B1 RNA with C27G, C28G, G29A, A31U
DNA 1: CAATCTGAATTCCGGTCTCCC
DNA 2: TGGTGGCTACGACGGGATT
B20: GGUUAAG (DNA:RNA)
RNA: B1 RNA with U25G, C27U, C28U, G29A, U30A, A31G
DNA 1: CAATCTGAATTCCGGTCTCCC
DNA 2: TGGTGGCTACGACGGGATT

Each binder was assayed against T1, RBFOX1 RRM (assay: EMSA; HiTS-Eq, 1 nM pool, 10 min; buffer printed only for the single-RNA assays: 10 mM Tris pH 7.5, 150 mM NaCl, 3.4 mM EDTA, 0.001% NP-40, 30 C). Settings: tags: His6 N-terminal (pET28a); label: 5' 32P.
Summary of the method: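 Purified RbFox RRM (wild type or mutant) was equilibrated for 10 min in 50 µL with 1 nM of a 5′-radiolabelled pool of RNA with 7 randomized nucleotides, its flanks annealed to DNA oligonucleotides, across increasing protein concentrations. Free RNA was separated by 8% native PAGE, excised, reverse-transcribed, PCR-barcoded and sequenced on an Illumina HiSeq 2500. Relative association constants came from read-count changes of each variant against the control reaction, normalised to the cognate motif.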

Row | Binder | binding signal
1 | B1 | 0.0135 KA relative to UGCAUGU
2 | B2 | 0.00694 KA relative to UGCAUGU
3 | B3 | 0.0148 KA relative to UGCAUGU
4 | B4 | 0.00492 KA relative to UGCAUGU
5 | B5 | 0.00721 KA relative to UGCAUGU
6 | B6 | 0.0048 KA relative to UGCAUGU
7 | B7 | 0.00408 KA relative to UGCAUGU
8 | B8 | 0.0165 KA relative to UGCAUGU
9 | B9 | 0.0235 KA relative to UGCAUGU
10 | B10 | 0.00265 KA relative to UGCAUGU
11 | B11 | 0.00151 KA relative to UGCAUGU
12 | B12 | 0.0242 KA relative to UGCAUGU
13 | B13 | 0.00287 KA relative to UGCAUGU
14 | B14 | 0.0136 KA relative to UGCAUGU
15 | B15 | 0.0186 KA relative to UGCAUGU
16 | B16 | 0.00079 KA relative to UGCAUGU
17 | B17 | 0.00671 KA relative to UGCAUGU
18 | B18 | 0.00309 KA relative to UGCAUGU
19 | B19 | 0.0315 KA relative to UGCAUGU
20 | B20 | 0.00797 KA relative to UGCAUGU

Reference: publication PMC9911399, “Two distinct binding modes provide the RNA-binding protein RbFox with extraordinary sequence specificity”
